{
  "source": "paper PMC9911399",
  "about": "“Two distinct binding modes provide the RNA-binding protein RbFox with extraordinary sequence specificity”",
  "binders": {"B1": {"name": "AACUGGU (DNA:RNA)", "RNA": "GGGAGACCGGAAUUCAGAUUGUCCAACUGGUUUAAAUCCCGUCGUAGCCACCA", "DNA 1": "CAATCTGAATTCCGGTCTCCC", "DNA 2": "TGGTGGCTACGACGGGATT"}, "B2": {"name": "UCCAUAG (DNA:RNA)", "RNA": "B1 RNA with A25U, A26C, U28A, G29U, G30A, U31G", "DNA 1": "CAATCTGAATTCCGGTCTCCC", "DNA 2": "TGGTGGCTACGACGGGATT"}, "B3": {"name": "CACCUCA (DNA:RNA)", "RNA": "B1 RNA with A25C, U28C, G29U, G30C, U31A", "DNA 1": "CAATCTGAATTCCGGTCTCCC", "DNA 2": "TGGTGGCTACGACGGGATT"}, "B4": {"name": "UAGAGGA (DNA:RNA)", "RNA": "B1 RNA with A25U, C27G, U28A, U31A", "DNA 1": "CAATCTGAATTCCGGTCTCCC", "DNA 2": "TGGTGGCTACGACGGGATT"}, "B5": {"name": "ACAUAUU (DNA:RNA)", "RNA": "B1 RNA with A26C, C27A, G29A, G30U", "DNA 1": "CAATCTGAATTCCGGTCTCCC", "DNA 2": "TGGTGGCTACGACGGGATT"}, "B6": {"name": "CGGUCAA (DNA:RNA)", "RNA": "B1 RNA with A25C, A26G, C27G, G29C, G30A, U31A", "DNA 1": "CAATCTGAATTCCGGTCTCCC", "DNA 2": "TGGTGGCTACGACGGGATT"}, "B7": {"name": "CUCUGGA (DNA:RNA)", "RNA": "B1 RNA with A25C, A26U, U31A", "DNA 1": "CAATCTGAATTCCGGTCTCCC", "DNA 2": "TGGTGGCTACGACGGGATT"}, "B8": {"name": "GCCACCU (DNA:RNA)", "RNA": "B1 RNA with A25G, A26C, U28A, G29C, G30C", "DNA 1": "CAATCTGAATTCCGGTCTCCC", "DNA 2": "TGGTGGCTACGACGGGATT"}, "B9": {"name": "CGUUAGA (DNA:RNA)", "RNA": "B1 RNA with A25C, A26G, C27U, G29A, U31A", "DNA 1": "CAATCTGAATTCCGGTCTCCC", "DNA 2": "TGGTGGCTACGACGGGATT"}},
  "note": "Residue numbers refer to the chain shown, from its start. Some of the results follow.",
  "data": [
    {"target": "T1, RBFOX1 RRM (Homo sapiens, UniProt Q9NWB1 109-208)", "T1 sequence": "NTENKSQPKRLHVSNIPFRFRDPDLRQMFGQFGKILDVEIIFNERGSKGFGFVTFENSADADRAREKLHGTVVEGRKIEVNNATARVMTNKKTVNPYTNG", "experiment": "EMSA; HiTS-Eq, 1 nM pool, 10 min; buffer printed only for the single-RNA assays: 10 mM Tris pH 7.5, 150 mM NaCl, 3.4 mM EDTA, 0.001% NP-40, 30 C", "conditions": "tags: His6 N-terminal (pET28a); label: 5' 32P", "in_short": "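Purified wild-type or mutant RbFox RRM at increasing concentrations was equilibrated with 1 nM of 5′-radiolabelled RNA carrying 7 randomized nucleotides for 10 min in 50 µL. Unbound RNA was separated by 8% native PAGE and sequenced. Relative association constants came from read-count changes of each RNA species compared with the control reaction, normalised to the cognate motif.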", "values": [
      {"binder": "B1", "binding signal": "0.00971 KA relative to UGCAUGU"},
      {"binder": "B2", "binding signal": "0.0074 KA relative to UGCAUGU"},
      {"binder": "B3", "binding signal": "0.00147 KA relative to UGCAUGU"},
      {"binder": "B4", "binding signal": "0.00353 KA relative to UGCAUGU"},
      {"binder": "B5", "binding signal": "0.000313 KA relative to UGCAUGU"},
      {"binder": "B6", "binding signal": "0.00469 KA relative to UGCAUGU"},
      {"binder": "B7", "binding signal": "0.00614 KA relative to UGCAUGU"},
      {"binder": "B8", "binding signal": "0.00566 KA relative to UGCAUGU"},
      {"binder": "B9", "binding signal": "0.00888 KA relative to UGCAUGU"}
    ]}
  ]
}
